# Results reported in the BET-seq Pho4 binding data (Le et al. 2018).
# The list shows a part of the results. These are noisy estimates, calculated here from bound and input reads.
# Target: T1, Pho4 (S. cerevisiae) (UniProt P07270)
# T1 sequence: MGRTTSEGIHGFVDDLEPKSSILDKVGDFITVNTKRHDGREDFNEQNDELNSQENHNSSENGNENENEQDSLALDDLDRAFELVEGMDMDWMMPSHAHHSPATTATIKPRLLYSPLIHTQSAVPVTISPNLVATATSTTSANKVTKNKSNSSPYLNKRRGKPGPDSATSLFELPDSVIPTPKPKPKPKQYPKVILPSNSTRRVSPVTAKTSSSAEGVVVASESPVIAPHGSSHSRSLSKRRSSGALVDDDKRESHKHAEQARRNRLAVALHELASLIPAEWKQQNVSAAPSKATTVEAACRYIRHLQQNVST
# Test: relative binding free energy (BET-seq); higher = weaker binding
# Conditions: reference: library average
row,Sequence,relative binding free energy [kcal/mol]
1,CGGTTCACGTGGGGTC,0.18
2,AAGCGCACGTGAGGTT,0.19
3,ACCTTCACGTGGGGGG,0.19
4,AGGTGCACGTGTTGTG,0.05
5,GGTTGCACGTGGGTGG,-0.09
6,TCGTTCACGTGGAAGT,0.4
7,TGGAGCACGTGCACGT,-0.01
8,GTTGTCACGTGTACGA,0.13
9,TGGTGCACGTGGGGCA,-0.1
10,CGAGGCACGTGTTAGG,-0.08
11,AGACGCACGTGGGTTG,-0.18
12,AAAGGCACGTGAAAGT,0.18
13,GGGTGCACGTGCGTGT,-0.04
14,CCGGTCACGTGGGTGT,-0.07
15,TGACTCACGTGGAGTT,0.32
16,CTGGACACGTGTGGTG,0.1
17,CGGAGCACGTGTTTAA,0.04
18,TGTAACACGTGAGTTA,0.22
19,CGGATCACGTGGTTTG,-0.12
20,AGTGGCACGTGGAGGA,-0.09
21,GTGTGCACGTGGCCAG,-0.2
22,CAGTACACGTGGGTGG,-0.09
23,AGGGTCACGTGATCAG,0.29
24,TGAATCACGTGTTGGC,0.22
25,CGTTTCACGTGTGTTA,0.22

row,Sequence,relative binding free energy [kcal/mol]
1,AGGAGCACGTGTCAGT,-0.1
2,AAGATCACGTGGTGAG,0.04
3,GGAGTCACGTGAAGCG,0.33
4,AGGGTCACGTGCTTGG,-0.02
5,GTAGGCACGTGAGCTT,0.1
6,TAAGTCACGTGGTAGG,0.04
7,TAGTACACGTGAGAAT,0.39
8,GGGAACACGTGTAGTG,0.14
9,TTATGCACGTGCTTAG,-0.15
10,GTCAGCACGTGTTTTA,-0.03
11,TACAGCACGTGAGTTG,0.15
12,GCGTACACGTGAGTTG,0.38
13,GCTTACACGTGATGGT,0.24
14,GATGTCACGTGTTGCA,0.15
15,TTTGACACGTGTAGGA,0
16,TGGGCCACGTGGATGT,-0.01
17,TTTTCCACGTGAGATG,0.45
18,ACGTTCACGTGTGTGA,0.17
19,TTGGTCACGTGGTCAT,0.05
20,TAGCACACGTGTGTTT,0.27
21,AGGAACACGTGACGGG,0.16
22,TGTTGCACGTGCGCGG,-0.13
23,ATTCGCACGTGTTCGG,0.01
24,TATGTCACGTGAAGAG,0.18
25,GGAATCACGTGTAGTT,0.15

row,Sequence,relative binding free energy [kcal/mol]
1,TTCGACACGTGTTTAA,-0.01
2,CGTATCACGTGAGTTG,0.24
3,GGAAGCACGTGTGGAA,-0.03
4,ATGGACACGTGAGTGA,0.3
5,TGTTGCACGTGTGTTG,0.09
6,ACACGCACGTGAGGGG,0.01
7,AGATACACGTGAGGAT,0.33
8,GTCTTCACGTGTTAAG,0.38
9,TTGATCACGTGGTTAG,0.15
10,TTTATCACGTGTAGTC,0.28
11,TGGGACACGTGGAAGG,0.1
12,GGTTCCACGTGAATGT,0.27
13,GGAGTCACGTGTATAT,-0.01
14,TATTTCACGTGGGGAG,0.12
15,AAGGACACGTGGGAAG,-0.02
16,GGGGCCACGTGCTGGT,-0.19
17,AGGTGCACGTGCTTAT,-0.16
18,AAGATCACGTGCTGTT,0.14
19,GGAATCACGTGAAAGG,0.48
20,ATTGTCACGTGCTCGG,-0.01
21,ATTTGCACGTGTGTGC,0.05
22,TGTGCCACGTGGGAGG,-0.15
23,TGATACACGTGATTGA,0.32
24,GTTTGCACGTGTGGAC,0.11
25,GGTGGCACGTGATAGA,-0.1

row,Sequence,relative binding free energy [kcal/mol]
1,TGGAGCACGTGGAATG,0.07
2,GTTATCACGTGATGCT,0.22
3,TAGAGCACGTGGGGAA,-0.11
4,TTCTGCACGTGGTTAT,-0.1
5,TGAGGCACGTGAATGC,0.1
6,CAAGGCACGTGGGGGT,-0.18
7,TTGGGCACGTGAGATC,0.09
8,TGTTTCACGTGCGGTA,0.29
9,GTTGGCACGTGTACTT,-0.07
10,TGCATCACGTGTAATG,0.09
11,GAGAGCACGTGGTTGT,-0.04
12,GGTTCCACGTGTCGGT,0.06
13,GGATACACGTGGGTTT,0.09
14,TTCTACACGTGATTGG,0.25
15,GATTGCACGTGGGGGC,0.02
16,ATGGGCACGTGAGAAA,0.14
17,CGATACACGTGTGTTG,-0.13
18,TTTGTCACGTGCGAAA,0.11
19,TGTAGCACGTGCGTAA,-0.24
20,AATGGCACGTGATCTG,-0.04
21,ATGTTCACGTGAGTAA,0.33
22,TGCAGCACGTGAGGGG,0.05
23,GTAGTCACGTGTGTTC,0.14
24,TTTCACACGTGTGTTA,0.1
25,GTAGCCACGTGGGGGT,-0.21

row,Sequence,relative binding free energy [kcal/mol]
1,GGTAACACGTGTGAAT,0.07
2,TGTCGCACGTGTGCAT,0.11
3,ACAGGCACGTGTAGGT,-0.1
4,GGCCTCACGTGATGGT,0.33
5,GGGGACACGTGTTATT,0.02
6,ATTTTCACGTGGCGCG,0.19
7,GGATGCACGTGGGTTC,0.02
8,GTGGTCACGTGAGGCA,0.27
9,TTCAGCACGTGGGTTG,-0.08
10,CGAAACACGTGGTGGT,0.09
11,ATACGCACGTGGTTGG,-0.29
12,AGAGTCACGTGAAGAT,0.3
13,ATGGTCACGTGATTTA,0.32
14,AAGGTCACGTGTTATA,0.11
15,CGTATCACGTGGTTAG,0.06
16,GGTAGCACGTGAATAG,0.33
17,TATGGCACGTGAGTGA,0.08
18,ATGAGCACGTGCGCGT,-0.18
19,TTAGTCACGTGTAATC,0.17
20,AATAACACGTGGTAGT,0
21,AATGACACGTGTTTTT,0.02
22,GGTTTCACGTGGGTAT,0.31
23,GGGTGCACGTGTGGCA,-0.01
24,ATTGACACGTGGTTCT,-0.05
25,GTGGACACGTGGTGTA,-0.11

row,Sequence,relative binding free energy [kcal/mol]
1,AGAGGCACGTGCGGGA,-0.26
2,CAGGGCACGTGCGGAG,-0.13
3,CTAAGCACGTGGGTGG,-0.31
4,TGGTTCACGTGAGTGC,0.48
5,TTTTCCACGTGGGTCG,0.02
6,CGGTTCACGTGAGGAG,0.37
7,TTAAACACGTGATTAA,0.27
8,CGGGTCACGTGTTAAG,0.17
9,AATTGCACGTGTTTAT,-0.01
10,TCGATCACGTGGGTGG,0.12
11,GTGAGCACGTGGTCTA,-0.13
12,TGTAGCACGTGGAGTA,-0.01
13,AAAGTCACGTGTGTAA,-0.01
14,TGTATCACGTGATGCA,0.15
15,AATGGCACGTGAGTCA,0.14
16,TGGATCACGTGATCTG,0.26
17,GATTGCACGTGTGTGT,0.14
18,GGCGGCACGTGGTCGC,0.08
19,TTATCCACGTGTGGGG,-0.02
20,GGCTTCACGTGCTGTG,0.23
21,TGCGCCACGTGTGTTA,-0.06
